Test results taken from ChEMBL document CHEMBL5606458, “ASAP - ZIKV NS2B-NS3 protease fluorescence single point” (2024).
In all, about 2,700 compounds went through this assay and about 160 (5.9%) showed an effect of 50% or more. This is one part of the list.

Molecular target: Nonstructural protein 3 (Zika virus) (UniProt A0A024AXB9)
[1] = PRVABC59, Concentration 50.0 uM, Number of replicates 1.0
[2] = PRVABC59, Concentration 15.0 uM, Number of replicates 1.0

Chain of UniProt A0A024AXB9 (A0A024AXB9 as listed by the source): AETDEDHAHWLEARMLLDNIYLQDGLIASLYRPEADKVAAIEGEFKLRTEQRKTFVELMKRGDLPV

Compound: O=Cc1ccc(N2CCC(C(=O)N[C@H]3C[C@@H]3c3ccc(F)c(F)c3)CC2)cc1
- inhibition [1]: 17.3%

Compound: O=Cc1ccc(N2CCC(C(=O)N3CCC[C@H](c4ccccc4)C3)CC2)cc1
- inhibition [1]: 25.7%

Compound: Nc1cccc2c(Cl)ccnc12
- inhibition (PRVABC59, Concentration 49.95 uM, Number of replicates 2.0, Standard deviation 13.26082141913299 %): 25%
- inhibition (PRVABC59, Concentration 99.9 uM, Number of replicates 2.0, Standard deviation 5.807935528538471 %): 61.3%

Compound: Nc1ccc(C(=O)Nc2nc3ccccc3s2)cn1
- inhibition (PRVABC59, Concentration 49.5 uM, Number of replicates 2.0, Standard deviation 2.1780366832511766 %): 3.72%
- inhibition (PRVABC59, Concentration 99.01 uM, Number of replicates 2.0, Standard deviation 0.18481519512572567 %): 1.19%
- inhibition (PRVABC59, Concentration 198.0 uM, Number of replicates 2.0, Standard deviation 1.744814116442124 %): 7.22%

Compound: COc1cc(CCNC(=O)C2CCN(c3ccc(C=O)cc3)CC2)cc(OC)c1
- inhibition [1]: 22.2%

Compound: O=Cc1ccc(N2CCC(C(=O)N(Cc3cccc(F)c3)C3CCCC3)CC2)cc1
- inhibition [1]: 25.2%

Compound: Cc1c(C(=O)N[C@@H](CO)CS(C)(=O)=O)ccc(O)c1NC(=O)c1ccncc1F
- inhibition (PRVABC59, Concentration 49.5 uM, Number of replicates 2.0, Standard deviation 1.9638256628693456 %): 0.432%
- inhibition (PRVABC59, Concentration 99.01 uM, Number of replicates 2.0, Standard deviation 3.3162227164860276 %): 1.85%
- inhibition (PRVABC59, Concentration 198.0 uM, Number of replicates 2.0, Standard deviation 3.3628572560592405 %): 4.7%

Compound: NC(=O)[C@@H]1Cc2ccccc2CN1C(=O)C1CCN(c2ccc(C=O)cc2)CC1
- inhibition [1]: 8.37%

Compound: Cc1cc(Cl)c2cccc(N)c2n1
- inhibition (PRVABC59, Concentration 49.95 uM, Number of replicates 2.0, Standard deviation 7.781875381379218 %): 5.79%
- inhibition (PRVABC59, Concentration 99.9 uM, Number of replicates 2.0, Standard deviation 5.7320152302040395 %): 14.4%

Compound: Cc1cc(CO)c2cccc(NC(=O)C3CC(N)C3)c2n1 (stereo not given)
- inhibition (PRVABC59, Concentration 49.95 uM, Number of replicates 2.0, Standard deviation 0.17303270644971713 %): 56.1%
- inhibition (PRVABC59, Concentration 99.9 uM, Number of replicates 2.0, Standard deviation 0.6659229038704304 %): 84.7%

Compound: CNC(=O)CCNS(=O)(=O)c1ccc(Oc2ccccc2Cl)cc1
- inhibition (PRVABC59, Concentration 49.5 uM, Number of replicates 2.0, Standard deviation 0.6103677098553716 %): -1.45%
- inhibition (PRVABC59, Concentration 99.01 uM, Number of replicates 2.0, Standard deviation 1.2353674673512853 %): 0.707%
- inhibition (PRVABC59, Concentration 198.0 uM, Number of replicates 2.0, Standard deviation 0.9030098849248221 %): 3.94%

Compound: O=Cc1ccc(N2CCC(C(=O)N3CCN(CCOc4ccccc4)CC3)CC2)cc1
- inhibition [1]: 20.6%

Compound: N#Cc1cnn(-c2ccccn2)c1NC(=O)C1CCN(c2ccc(C=O)cc2)CC1
- inhibition [1]: 20%

Compound: CC(C)(C)N(Cc1ccccc1)C(=O)C1CCN(c2ccc(C=O)cc2)CC1
- inhibition [1]: 25.8%

Compound: CS(=O)(=O)C1(CN2CC[C@H](c3c[nH]c4ccccc34)C2)CC1
- inhibition (PRVABC59, Concentration 49.5 uM, Number of replicates 2.0, Standard deviation 1.2618414939445093 %): -2.04%
- inhibition (PRVABC59, Concentration 99.01 uM, Number of replicates 2.0, Standard deviation 2.1347735965308954 %): 1.06%
- inhibition (PRVABC59, Concentration 198.0 uM, Number of replicates 2.0, Standard deviation 2.1770465694859586 %): 7.85%

Compound: COc1ccc(OC)c(CN2CCN(C(=O)C3CCN(c4ccc(C=O)cc4)CC3)CC2)c1
- inhibition [1]: 27%

Compound: COc1ccc(CCCNC(=O)C2CCN(c3ccc(C=O)cc3)CC2)cc1
- inhibition [1]: 20.6%

Compound: O=C(c1cc(Cl)ccc1NS(=O)(=O)c1ccc(Oc2ccccc2Cl)cc1)N1CCN(Cc2cccc(F)c2)CC1
- inhibition [2]: 15%

Compound: Cc1cc(CO)c2cccc(C[C@H](NC(=O)CNC3CC3)C(=O)O)c2n1
- inhibition (PRVABC59, Concentration 49.95 uM, Number of replicates 2.0, Standard deviation 2.343473347487472 %): -9.73%
- inhibition (PRVABC59, Concentration 99.9 uM, Number of replicates 2.0, Standard deviation 1.6007878826619684 %): -6.1%

Compound: Cc1nnccc1Cn1ncc(C2CCNCC2)c1C
- inhibition (PRVABC59, Concentration 49.5 uM, Number of replicates 2.0, Standard deviation 1.57987158185777 %): -0.339%
- inhibition (PRVABC59, Concentration 99.01 uM, Number of replicates 2.0, Standard deviation 0.7213753017219712 %): -1.09%
- inhibition (PRVABC59, Concentration 198.0 uM, Number of replicates 2.0, Standard deviation 0.5902161214705549 %): -1.89%

Compound: Cn1cc(NC(=O)c2ccccc2C(F)(F)F)c(-c2cnc3cn(C)nc3c2)n1
- inhibition (PRVABC59, Concentration 49.5 uM, Number of replicates 2.0, Standard deviation 1.178216245940104 %): -2.01%
- inhibition (PRVABC59, Concentration 99.01 uM, Number of replicates 2.0, Standard deviation 1.4710675536718656 %): -2.29%
- inhibition (PRVABC59, Concentration 198.0 uM, Number of replicates 2.0, Standard deviation 1.7829883926731995 %): 0.77%

Compound: Cc1nc(C(=O)N2CCC(n3cc(CN)nn3)CC2)c(Cc2ccccc2)s1
- inhibition (PRVABC59, Concentration 49.5 uM, Number of replicates 2.0, Standard deviation 0.17686621520287402 %): -2.1%
- inhibition (PRVABC59, Concentration 99.01 uM, Number of replicates 2.0, Standard deviation 0.23847116785318653 %): -1.95%
- inhibition (PRVABC59, Concentration 198.0 uM, Number of replicates 2.0, Standard deviation 0.041732481769759175 %): 0.471%

Compound: CCn1ccnc(NCC(=O)c2c[nH]c3ccccc23)c1=O
- inhibition (PRVABC59, Concentration 49.5 uM, Number of replicates 2.0, Standard deviation 1.7965916884251514 %): -7.9%
- inhibition (PRVABC59, Concentration 99.01 uM, Number of replicates 2.0, Standard deviation 2.206637366063275 %): -9.28%

Compound: Cc1nc(C2CCN(C(=O)c3ccn([C@H]4CCCNC4)n3)CC2)n[nH]1
- inhibition (PRVABC59, Concentration 49.5 uM, Number of replicates 2.0, Standard deviation 1.1522585919981234 %): -1.99%
- inhibition (PRVABC59, Concentration 99.01 uM, Number of replicates 2.0, Standard deviation 1.5159146664731555 %): -2.28%
- inhibition (PRVABC59, Concentration 198.0 uM, Number of replicates 2.0, Standard deviation 1.6936566931880859 %): -3.04%

Compound: Cn1oc(C(=O)Nc2cc(Cl)cc(C(=O)NC(C)(C)CO)c2)cc1=O
- inhibition (PRVABC59, Concentration 49.5 uM, Number of replicates 2.0, Standard deviation 0.49453347143401666 %): 0.152%
- inhibition (PRVABC59, Concentration 99.01 uM, Number of replicates 2.0, Standard deviation 4.083705258559492 %): 4.33%
- inhibition (PRVABC59, Concentration 198.0 uM, Number of replicates 2.0, Standard deviation 1.0290099115968685 %): 3.63%

Compound: [N-]=[N+]=NCCOCCOCCOCCNC(=O)C1CCN(c2ccc(C=O)cc2)CC1
- inhibition [1]: 22.5%

Compound: O=Cc1ccc(N2CCC(C(=O)N3CCC(O)(c4ccc(Cl)cc4)CC3)CC2)cc1
- inhibition [1]: 20.5%

Compound: CCOC(=O)c1coc(Cn2cc(C3CCNCC3)c(C)n2)n1
- inhibition (PRVABC59, Concentration 49.5 uM, Number of replicates 2.0, Standard deviation 2.7013392036203805 %): 2.91%
- inhibition (PRVABC59, Concentration 99.01 uM, Number of replicates 2.0, Standard deviation 3.7617734682921835 %): 6.05%
- inhibition (PRVABC59, Concentration 198.0 uM, Number of replicates 2.0, Standard deviation 0.5886748112205115 %): 11.1%

Compound: O=Cc1ccc(N2CCC(C(=O)N[C@@H](CCO)c3ccccc3F)CC2)cc1
- inhibition (PRVABC59, Concentration 10.0 uM, Number of replicates 1.0): 19.1%

Compound: Cn1cc(CNC(=O)c2ccccc2-c2cccnc2)cn1
- inhibition (PRVABC59, Concentration 49.5 uM, Number of replicates 2.0, Standard deviation 0.5877340250731194 %): 0.299%
- inhibition (PRVABC59, Concentration 99.01 uM, Number of replicates 2.0, Standard deviation 0.42986369479040104 %): -0.679%
- inhibition (PRVABC59, Concentration 198.0 uM, Number of replicates 2.0, Standard deviation 0.566811449656849 %): -0.69%

Compound: CC(=O)Nc1cccc(CNC(=O)c2cc(Cl)ccc2NS(=O)(=O)c2ccc(Oc3ccccc3Cl)cc2)c1
- inhibition [2]: 28.4%

Compound: O=C(c1cc(Cl)ccc1NS(=O)(=O)c1ccc(Oc2ccccc2Cl)cc1)N1CCN(c2cccc([N+](=O)[O-])c2)CC1
- inhibition [2]: 15.2%

Compound: Cc1cc(CO)c2cccc(Cc3cccc(NC(=O)Cc4c[nH]c5ccccc45)c3)c2n1
- inhibition (PRVABC59, Concentration 49.95 uM, Number of replicates 2.0, Standard deviation 1.6337816579349032 %): -0.245%
- inhibition (PRVABC59, Concentration 99.9 uM, Number of replicates 2.0, Standard deviation 1.6490504074791872 %): 3.2%

Compound: COc1cc(NC(=O)c2cc(Cl)ccc2NS(=O)(=O)c2ccc(Oc3ccccc3Cl)cc2)c(Cl)cc1Cl
- inhibition [2]: 35%

Compound: c1ccc2c([C@H]3CCN(Cc4cn[nH]c4)C3)c[nH]c2c1
- inhibition (PRVABC59, Concentration 49.5 uM, Number of replicates 2.0, Standard deviation 2.1709874542503353 %): -0.564%
- inhibition (PRVABC59, Concentration 99.01 uM, Number of replicates 2.0, Standard deviation 1.6562600473854607 %): 2.06%
- inhibition (PRVABC59, Concentration 198.0 uM, Number of replicates 2.0, Standard deviation 0.319628886464673 %): 9.79%

Compound: O=C(Nc1ccc2c(c1)OCCO2)c1cc(Cl)ccc1NS(=O)(=O)c1ccc(Oc2ccccc2Cl)cc1
- inhibition [2]: 63.8%

Compound: O=Cc1ccc(N2CCC(C(=O)N(Cc3ccc4c(c3)OCO4)C3CCCC3)CC2)cc1
- inhibition [1]: 26.1%

Compound: Cc1cc(CO)c2cccc(Cc3cccc(NC(=O)c4nc(C5CCNCC5)oc4C)c3)c2n1
- inhibition (PRVABC59, Concentration 49.95 uM, Number of replicates 2.0, Standard deviation 2.83494201600161 %): -5.64%
- inhibition (PRVABC59, Concentration 99.9 uM, Number of replicates 2.0, Standard deviation 2.936734747350333 %): -6.74%

Compound: O=C(c1cc(Cl)ccc1NS(=O)(=O)c1ccc(Oc2ccccc2Cl)cc1)N(Cc1cnn(-c2ccccc2)c1)C1CC1
- inhibition [2]: 16.6%
